In publication PMC3748711:
No constants are given. Whether binding was seen depends on the method and setting. For some of these results: Binding seen in cells or lysates may run through a third protein. Some binding calls cover weakened binding; strength is not graded here. Values belong to the binder of their own block, whether it stands above or below them.

Protein sequences, listed by entry. Tags and fused reporters are not part of them. Residues count along the entry.
UniProt Q8VI56, residues 21-1905: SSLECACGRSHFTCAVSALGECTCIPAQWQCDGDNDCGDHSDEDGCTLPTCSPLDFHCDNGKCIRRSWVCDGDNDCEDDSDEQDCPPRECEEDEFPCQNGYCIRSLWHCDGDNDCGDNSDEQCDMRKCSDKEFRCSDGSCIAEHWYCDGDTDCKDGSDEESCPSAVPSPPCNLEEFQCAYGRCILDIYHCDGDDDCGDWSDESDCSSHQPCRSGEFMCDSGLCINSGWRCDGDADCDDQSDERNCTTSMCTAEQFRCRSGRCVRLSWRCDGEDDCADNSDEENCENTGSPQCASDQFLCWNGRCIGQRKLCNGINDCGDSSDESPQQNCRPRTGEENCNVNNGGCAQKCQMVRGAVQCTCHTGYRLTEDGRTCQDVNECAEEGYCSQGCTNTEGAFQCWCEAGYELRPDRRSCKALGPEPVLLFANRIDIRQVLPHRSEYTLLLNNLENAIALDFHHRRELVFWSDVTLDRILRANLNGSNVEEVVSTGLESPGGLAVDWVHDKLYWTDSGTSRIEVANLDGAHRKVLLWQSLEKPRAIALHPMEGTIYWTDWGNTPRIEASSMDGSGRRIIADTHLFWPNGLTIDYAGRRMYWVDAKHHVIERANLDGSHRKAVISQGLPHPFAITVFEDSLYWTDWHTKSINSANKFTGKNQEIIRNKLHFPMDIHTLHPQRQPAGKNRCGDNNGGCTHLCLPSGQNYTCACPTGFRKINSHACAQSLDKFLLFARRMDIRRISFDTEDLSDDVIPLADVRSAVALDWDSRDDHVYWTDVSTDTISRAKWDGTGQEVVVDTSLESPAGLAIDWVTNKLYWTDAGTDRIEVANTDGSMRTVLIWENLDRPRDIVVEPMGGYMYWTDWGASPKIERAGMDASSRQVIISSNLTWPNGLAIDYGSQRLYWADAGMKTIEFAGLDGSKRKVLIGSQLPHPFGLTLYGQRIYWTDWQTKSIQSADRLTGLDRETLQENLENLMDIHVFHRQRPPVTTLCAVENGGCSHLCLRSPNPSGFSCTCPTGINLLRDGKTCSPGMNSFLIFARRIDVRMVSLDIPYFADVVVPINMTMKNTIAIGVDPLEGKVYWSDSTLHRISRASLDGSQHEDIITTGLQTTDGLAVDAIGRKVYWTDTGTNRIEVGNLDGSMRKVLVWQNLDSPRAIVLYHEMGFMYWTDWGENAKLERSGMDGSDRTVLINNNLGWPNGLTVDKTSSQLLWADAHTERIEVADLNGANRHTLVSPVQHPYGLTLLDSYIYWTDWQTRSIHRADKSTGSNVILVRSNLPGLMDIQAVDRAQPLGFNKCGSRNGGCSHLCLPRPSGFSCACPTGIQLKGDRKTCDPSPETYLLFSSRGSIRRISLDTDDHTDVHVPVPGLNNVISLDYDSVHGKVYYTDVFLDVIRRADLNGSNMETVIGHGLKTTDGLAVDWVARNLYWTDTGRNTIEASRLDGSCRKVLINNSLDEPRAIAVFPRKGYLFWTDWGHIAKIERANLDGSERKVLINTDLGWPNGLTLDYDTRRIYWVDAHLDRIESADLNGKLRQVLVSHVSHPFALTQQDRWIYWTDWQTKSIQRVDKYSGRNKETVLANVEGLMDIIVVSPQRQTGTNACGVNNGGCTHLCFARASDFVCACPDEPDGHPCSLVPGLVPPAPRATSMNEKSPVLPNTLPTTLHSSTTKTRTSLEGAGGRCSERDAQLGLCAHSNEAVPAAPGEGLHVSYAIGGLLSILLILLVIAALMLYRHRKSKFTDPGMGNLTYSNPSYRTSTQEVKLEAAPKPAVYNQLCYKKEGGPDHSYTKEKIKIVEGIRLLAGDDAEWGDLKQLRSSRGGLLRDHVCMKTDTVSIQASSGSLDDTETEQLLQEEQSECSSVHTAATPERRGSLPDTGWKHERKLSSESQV
UniProt Q924X6, residues 29-996: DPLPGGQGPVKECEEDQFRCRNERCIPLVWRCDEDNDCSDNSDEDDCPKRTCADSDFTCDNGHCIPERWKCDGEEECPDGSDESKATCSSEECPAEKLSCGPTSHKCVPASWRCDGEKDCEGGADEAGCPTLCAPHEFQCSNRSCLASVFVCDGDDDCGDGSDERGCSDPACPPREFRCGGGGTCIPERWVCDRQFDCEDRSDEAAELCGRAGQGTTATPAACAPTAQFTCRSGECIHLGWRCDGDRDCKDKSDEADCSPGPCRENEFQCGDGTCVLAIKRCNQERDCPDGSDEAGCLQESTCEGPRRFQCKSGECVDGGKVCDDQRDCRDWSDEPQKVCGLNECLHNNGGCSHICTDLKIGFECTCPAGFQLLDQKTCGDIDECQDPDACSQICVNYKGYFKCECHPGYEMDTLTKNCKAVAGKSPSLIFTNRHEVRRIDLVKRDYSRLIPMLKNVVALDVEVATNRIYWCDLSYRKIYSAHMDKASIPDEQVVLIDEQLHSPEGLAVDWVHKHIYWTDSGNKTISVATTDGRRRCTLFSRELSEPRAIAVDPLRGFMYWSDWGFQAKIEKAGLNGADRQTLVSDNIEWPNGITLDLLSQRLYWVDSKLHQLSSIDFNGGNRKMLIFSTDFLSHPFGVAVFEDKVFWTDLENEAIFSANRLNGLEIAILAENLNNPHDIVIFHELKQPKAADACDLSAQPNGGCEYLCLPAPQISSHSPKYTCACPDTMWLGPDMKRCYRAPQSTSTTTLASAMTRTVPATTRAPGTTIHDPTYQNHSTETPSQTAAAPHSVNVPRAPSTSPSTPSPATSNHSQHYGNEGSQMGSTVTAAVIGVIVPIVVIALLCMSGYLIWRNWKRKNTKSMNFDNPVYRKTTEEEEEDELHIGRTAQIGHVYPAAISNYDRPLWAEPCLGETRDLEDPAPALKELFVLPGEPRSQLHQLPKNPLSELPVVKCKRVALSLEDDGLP

Experiments:
[1] = target: T1, full length APP expressed on HEK293T cells, P12023; assay: cell aggregation assay; HEK293T cells expressing APP (green) and LRP4 (red) mixed in suspension in aggregation buffer with CaCl2, 30 min, 37°C; aggregates >3000 µm^2 scored; conditions: remark: other sources report otherwise
T1 chain: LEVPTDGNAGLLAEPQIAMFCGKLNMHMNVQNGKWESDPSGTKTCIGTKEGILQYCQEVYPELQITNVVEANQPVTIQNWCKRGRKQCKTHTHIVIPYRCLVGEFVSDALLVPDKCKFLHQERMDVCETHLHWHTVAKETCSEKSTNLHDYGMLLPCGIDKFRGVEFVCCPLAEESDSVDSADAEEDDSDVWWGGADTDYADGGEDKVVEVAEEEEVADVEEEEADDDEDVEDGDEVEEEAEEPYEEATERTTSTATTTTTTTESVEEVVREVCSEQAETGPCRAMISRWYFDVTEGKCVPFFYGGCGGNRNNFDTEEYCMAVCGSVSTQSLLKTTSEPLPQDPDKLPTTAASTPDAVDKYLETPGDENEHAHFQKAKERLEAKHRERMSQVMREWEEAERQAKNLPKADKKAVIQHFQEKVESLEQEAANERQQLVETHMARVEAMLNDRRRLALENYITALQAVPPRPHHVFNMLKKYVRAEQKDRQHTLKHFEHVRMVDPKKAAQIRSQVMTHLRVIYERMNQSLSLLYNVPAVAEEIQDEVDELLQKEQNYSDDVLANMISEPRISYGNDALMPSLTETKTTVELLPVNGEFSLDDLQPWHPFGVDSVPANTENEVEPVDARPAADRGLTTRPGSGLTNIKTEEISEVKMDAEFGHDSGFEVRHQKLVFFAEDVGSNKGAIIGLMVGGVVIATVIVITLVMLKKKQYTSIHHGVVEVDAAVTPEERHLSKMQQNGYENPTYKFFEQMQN

[2] = target: LRP4 (endogenous, mouse embryonic muscle) (mouse (endogenous in embryonic muscle)) (UniProt Q8VI56); assay: co-IP; E14.5 mouse hind limb muscle extract (PBS, 5 mM EDTA, 5 mM EGTA, 1% digitonin); anti-LRP4, anti-ApoER2 or anti-LRP1 overnight at 4°C, Protein A Dynabeads; immunoblot
[3] = target: LRP1 (endogenous, mouse embryonic muscle) (mouse (endogenous in embryonic muscle)) (UniProt Q91ZX7); assay: as above
[4] = target: Apoer2 (endogenous, mouse embryonic muscle) (mouse (endogenous in embryonic muscle)) (UniProt Q924X6); assay: as above

binding [1]: no binding
B1: full length APP expressed on HEK293T cells, P12023 18-770 (protein)
chain: T1 chain

binding [2]: binds
binding [3]: no binding
binding [4]: no binding
B2: MuSK (muscle-specific tyrosine kinase; endogenous, mouse embryonic muscle) (receptor, UniProt Q61006 22-868)
chain: EKLPKAPVITTPLETVDALVEEVATFMCAVESYPQPEISWTRNKILIKLFDTRYSIRENGQLLTILSVEDSDDGIYCCIANNGVGGAVESCGALQVKMKPKITRPPINVKIIEGLKAVLPCTTMGNPKPSVSWIKGDNALRENSRIAVLESGSLRIHNVQKEDAGQYRCVAKNSLGTAYSKLVKLEVEVFARILRAPESHNVTFGSFVTLRCTAIGIPVPTISWIENGNAVSSGSIQESVKDRVIDSRLQLFITKPGLYTCIATNKHGEKFSTAKAAATVSIAEWSKSQKDSQGYCAQYRGEVCDAVLAKDALVFFNTSYRDPEDAQELLIHTAWNELKAVSPLCRPAAEALLCNHLFQECSPGVVPTPMPICREYCLAVKELFCAKEWQAMEGKAHRGLYRSGMHLLPVPECSKLPSMHRDPTACTRLPYLDYKKENITTFPSITSSRPSADIPNLPASTSSFAVSPAYSMTVIISIVSSFALFALLTIATLYCCRRRKEWKNKKRESTAVTLTTLPSELLLDRLHPNPMYQRMPLLLNPKLLSLEYPRNNIEYVRDIGEGAFGRVFQARAPGLLPYEPFTMVAVKMLKEEASADMQADFQREAALMAEFDNPNIVKLLGVCAVGKPMCLLFEYMAYGDLNEFLRSMSPHTVCSLSHSDLSTRARVSSPGPPPLSCAEQLCIARQVAAGMAYLSERKFVHRDLATRNCLVGETMVVKIADFGLSRNIYSADYYKADGNDAIPIRWMPPESIFYNRYTTESDVWAYGVVLWEIFSYGLQPYYGMAHEEVIYYVRDGNILACPENCPLELYNLMRLCWSKLPADRPSFCSIHRILQRMCERAEGTVGV
